Measurements: publication PMC4336329 (PLoS ONE, 2015)
Among all 310,000 compounds or so, about 2,200 (0.71%) showed an effect of 50% or more. The effect is printed as a negative number. The list shows a part of the results.

target: human ether-à-go-go-related gene (hERG) potassium channel (human, UniProt Q12809); test: primary screen, population patch clamp on CHO cells stably expressing hERG
Sequence (Q12809 whole entry, looked up): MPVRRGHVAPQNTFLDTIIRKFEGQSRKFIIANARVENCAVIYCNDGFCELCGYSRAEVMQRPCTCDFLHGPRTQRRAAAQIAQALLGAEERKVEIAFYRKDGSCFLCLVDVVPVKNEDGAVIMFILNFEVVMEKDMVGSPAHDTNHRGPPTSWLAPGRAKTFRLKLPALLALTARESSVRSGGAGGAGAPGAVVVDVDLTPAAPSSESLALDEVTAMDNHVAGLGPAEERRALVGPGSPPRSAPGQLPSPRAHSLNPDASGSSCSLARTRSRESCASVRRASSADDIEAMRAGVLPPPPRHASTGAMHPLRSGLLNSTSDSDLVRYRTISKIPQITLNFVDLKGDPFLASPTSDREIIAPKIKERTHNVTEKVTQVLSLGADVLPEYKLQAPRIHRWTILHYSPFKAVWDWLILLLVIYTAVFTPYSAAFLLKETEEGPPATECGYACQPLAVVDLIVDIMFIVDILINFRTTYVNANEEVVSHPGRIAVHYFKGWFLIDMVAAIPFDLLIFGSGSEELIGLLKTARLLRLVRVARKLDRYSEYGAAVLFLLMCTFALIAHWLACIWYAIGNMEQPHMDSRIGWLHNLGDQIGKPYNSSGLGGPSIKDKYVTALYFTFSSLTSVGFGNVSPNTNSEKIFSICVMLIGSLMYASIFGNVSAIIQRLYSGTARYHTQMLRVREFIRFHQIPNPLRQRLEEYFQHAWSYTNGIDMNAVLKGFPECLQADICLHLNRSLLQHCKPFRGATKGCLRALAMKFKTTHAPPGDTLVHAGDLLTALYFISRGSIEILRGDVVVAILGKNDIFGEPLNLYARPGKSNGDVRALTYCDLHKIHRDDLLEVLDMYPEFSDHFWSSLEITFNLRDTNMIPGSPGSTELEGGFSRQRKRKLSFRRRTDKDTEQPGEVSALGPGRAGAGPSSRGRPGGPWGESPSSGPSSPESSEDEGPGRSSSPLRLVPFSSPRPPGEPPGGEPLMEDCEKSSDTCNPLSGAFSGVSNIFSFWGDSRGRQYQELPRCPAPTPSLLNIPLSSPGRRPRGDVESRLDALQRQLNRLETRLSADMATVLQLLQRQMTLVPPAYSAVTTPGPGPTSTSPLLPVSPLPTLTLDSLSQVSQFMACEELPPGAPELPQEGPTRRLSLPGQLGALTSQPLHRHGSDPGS

SMILES	hERG current change (%, negative = inhibition) at 1uM [%]
CN(C)CCCSc1nc(-c2ccccc2)nc2c1CCC2	-30.7
CCCCC(=O)NC(c1ccc(Cl)cc1)c1ccc2cccnc2c1O (stereo not shown)	6.4
COc1ccc(-c2nn(CCC(=O)O)cc2/C=N/NC(N)=S)cc1	1.71
COc1ccc(C(=O)NCCc2nnc3ccc(SCC(=O)Nc4cc(C)on4)nn23)cc1	1.01
O=C(CN1C(=O)CSc2cc(S(=O)(=O)N3CCCCCC3)ccc21)NCCc1ccccc1	4.74
Cc1cc(NC(=O)CSc2nc(-c3ccccc3)nc3c2c(=O)n(C)c(=O)n3C)no1	5.17
O=[N+]([O-])c1ccc(O)c([N+](=O)[O-])c1	6.22
CCCOP(=O)(OCCC)C(NC(=O)c1ccccc1)=C(Cl)Cl	8.75
Cc1ccc(-n2ncc3c(=O)n(CC(=O)NCc4ccco4)cnc32)cc1C	16.5
S=c1[nH]nc(-c2ccc(Cl)cc2)n1-c1cccnc1	11.2
CCOCCCNC(=O)c1cc(Sc2nnc(C)s2)nc2ccccc12	7.07
CCn1c(SCc2cccc(OC)c2)nc2ccccc2c1=O	12.2
Cc1cccc(C(=O)Nc2cccc(-c3cnc4ccccc4n3)c2)c1	11.9
COc1ccc(CNCCC(c2ccc(OC(C)C)cc2)c2ccccc2OC)cc1 (stereo not shown)	0.85
CC1CCN(C(=S)NC(=O)c2ccccc2Br)CC1	10.6
Cc1cccc(N2CCN(C(=O)c3cc(S(=O)(=O)N4CCOCC4)cn3C)CC2)c1C	5.14
COc1ccc(C(=O)NCCc2nnc3ccc(SCC(=O)Nc4ccccc4)nn23)cc1	10.7
COc1cc(/C=N/NC(=O)c2cccc(NC(=O)c3ccccc3C)c2)ccc1O	-10.7
CN(C)S(=O)(=O)n1cc(/C=C(\NC(=O)c2ccccc2Cl)C(=O)NCCCN2CCOCC2)c2ccccc21	15.9
Cc1cc(-c2nnc(CCC(=O)NC(C)c3ccc(F)cc3)o2)no1 (stereo not shown)	-0.909
CN(CC(O)Cn1cnc2c1c(=O)n(C)c(=O)n2C)c1ccccc1 (stereo not shown)	10.3
COc1ccc(Cn2nnnc2C(c2cccnc2)N2CCN(c3ccc(O)cc3)CC2)cc1 (stereo not shown)	3.3

SMILES	hERG current change (%, negative = inhibition) at 1uM [%]
CCn1c(=O)cc(OCC(=O)NCCc2ccc(OC)c(OC)c2)c2ccccc21	-11.8
Cc1cccc(C)c1N/C=C/c1onc(C)c1[N+](=O)[O-]	10.7
O=c1c(Cl)c(N2CCN(c3ccccc3)CC2)cnn1C12CC3CC(CC(C3)C1)C2	10.2
CCn1nc(C)cc1C(=O)NC1CCCc2c1cnn2-c1cc(F)cc(F)c1 (stereo not shown)	20.5
COC(CN(C)C(=O)c1ccc(CS(=O)(=O)c2ccccc2C)o1)OC	16.6
O=C(NCCN1C(=O)S/C(=C\c2cccnc2)C1=O)c1ccc(S(=O)(=O)N2CCCC2)cc1	-6.33
CC(=O)CCC1C2C(O)C(C(C)C)C(OC(=O)/C=C/c3ccccc3)CC12C (stereo not shown)	-6.41
Cc1nn(C)c(C(=O)N/N=C/c2cccc(Oc3ccccc3)c2)c1Br	15.7
CC1CCc2cc(F)ccc2N1C(=O)CSc1nnc2c(n1)[nH]c1ccccc12 (stereo not shown)	0.184
Cc1ccc(-c2csc(NC(=O)CN3C(=O)CCC3=O)n2)cc1	14.3
NC(Cc1c[nH]c2ccccc12)C(=O)Nc1ccccc1 (stereo not shown)	4.73
CN(CC(=O)Nc1ccc(F)c(F)c1)S(=O)(=O)c1cccc2cccnc12	12.4
O=C(NCCOc1ccccc1)c1ccc2c(c1)OCO2	9.84
Cc1cc(C)c(C#N)c(SCCS(=O)(=O)c2ccc(C(C)(C)C)cc2)n1	4.43
CCCCN1CC(=O)N2[C@H]3c4cc(OC)ccc4OC[C@@H]3[C@H](C(=O)OCC)[C@]2(C)C1=O	4.96
CN(c1ccc(C(=O)NCc2cccnc2)cc1)S(=O)(=O)c1ccc(Cl)cc1	8.4
O=C(Nc1ccc2c(c1)OCO2)c1ccc(Cl)cc1Cl	2.12
CCN(C(=O)CSc1nc2cc(S(=O)(=O)N(CC)CC)ccc2n1CC)C1CCS(=O)(=O)C1 (stereo not shown)	-1.98
CCOc1cc(C(=O)Nc2cc(C)ccc2OC)ccc1OCC(=O)N1CCCCC1	5.47
Cc1csc(SCC(=O)c2ccc(S(=O)(=O)N3CCOCC3)cc2)n1	9.84
COc1ccc(CN(C)C(=O)C2CC(=O)N(c3ccc4c(c3)OCCO4)C2)c(OC)c1 (stereo not shown)	8.65
